Measured values taken from PubChem BioAssay AID1030 (National Center for Advancing Translational Sciences (NCATS), 2008).
The campaign covered roughly 220,000 compounds. About 16,000 (7.3%) were called active. Inconclusive results, whose numbers are uncertain, are shown with a selection of clear calls. Calls come from the whole dose curve; as a rule, active = well fitted inhibition curve with a large enough effect (not every such curve was filed as active); inconclusive = small, poorly fitted or top-dose-only effect, or another doubt; inactive = no such curve, though single readings can be large or run the other way. Potencies of inconclusive entries are left out as doubtful fits.

target: Aldehyde dehydrogenase 1A1 (Homo sapiens) (UniProt P00352); assay: qHTS Assay for Inhibitors of Aldehyde Dehydrogenase 1 (ALDH1A1); settings: Purified ALDH1A1, NADH fluorescence, propionaldehyde substrate; series mostly up to 75.3 µM; activity, negative = inhibition: at the top concentration;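 for activity, negative = inhibition: plate controls were no enzyme wells and a reference inhibitor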
Potency is the fitted concentration of half-maximal effect; tags give direction and shape of the fitted curve.

Chain of UniProt P00352 (P00352 whole entry, looked up): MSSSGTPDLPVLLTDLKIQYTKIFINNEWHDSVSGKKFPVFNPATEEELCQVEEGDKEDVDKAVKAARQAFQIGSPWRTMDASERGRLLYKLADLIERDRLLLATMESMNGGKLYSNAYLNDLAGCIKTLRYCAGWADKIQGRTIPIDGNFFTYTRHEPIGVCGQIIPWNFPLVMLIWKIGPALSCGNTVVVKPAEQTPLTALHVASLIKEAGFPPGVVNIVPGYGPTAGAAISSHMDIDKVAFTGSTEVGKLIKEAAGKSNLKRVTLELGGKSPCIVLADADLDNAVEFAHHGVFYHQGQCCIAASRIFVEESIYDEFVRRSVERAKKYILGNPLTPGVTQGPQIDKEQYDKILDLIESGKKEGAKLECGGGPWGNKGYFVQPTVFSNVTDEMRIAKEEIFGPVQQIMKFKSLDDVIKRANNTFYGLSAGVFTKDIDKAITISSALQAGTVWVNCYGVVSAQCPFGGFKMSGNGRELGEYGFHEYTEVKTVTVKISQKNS

**Q.** Which Potency does the source give for `COc1nc(OC/C(N)=N/O)nc(N2CCOCC2)n1` here?
**A.** inconclusive [inhibitor, single point]

**Q.** With `COc1ccc(/C=N/NC(=S)SC)cc1OC` as the molecule, how does the Potency read?
**A.** active: 10 µM

**Q.** How did the “activity, negative = inhibition” value turn out when `COc1ccc2c(c1)O[C@@H](c1ccc3c(c1)OCO3)[C@H](OC(=O)Nc1ccc(OC(F)F)cc1)C2=O` was run?
**A.** inactive: -1.74%

**Q.** Which “activity, negative = inhibition” value does the source give for `O=C(c1cc(Br)c(Br)s1)N1CCN(C/C=C/c2ccccc2)CC1` here?
**A.** inactive: -5.8%

**Q.** With `c1ccc(-c2nc3c([nH]2)CCc2nonc2-3)cc1` as the molecule, how does the Potency read?
**A.** active: 4.47 µM

**Q.** Which Potency does the source give for `CCOc1ccc(OCC)c(NC(=O)CN2CCN(c3cccc(C)c3)C(C)C2)c1` (configuration not stated) here?
**A.** inconclusive [inhibitor, single point]

**Q.** For `COC(=O)Cn1c(O)c(N=NC(=O)c2ccc3c(c2)OCO3)c2ccccc21`, which Potency is on record?
**A.** active: 1.78 µM

**Q.** For `COc1ccc(CC(=O)OCc2cc3cccc(C)c3[nH]c2=O)cc1`, which Potency is on record?
**A.** inconclusive [inhibitor, partial curve]

**Q.** For `COc1ccc(CCNC(=O)CSc2nc3[nH]ncc3c(=O)n2-c2ccccc2Br)cc1OC`, which Potency is on record?
**A.** active: 22.4 µM

**Q.** Which “activity, negative = inhibition” value does the source give for `CC(/C=N/N1CCN(c2ccccc2)CC1)=C\c1ccccc1` here?
**A.** inactive: 2.22%

**Q.** With `COc1cccc(-n2nc(C#N)c(Cl)cc2=O)c1` as the molecule, how does the “activity, negative = inhibition” value read?
**A.** inactive: -4.68%

**Q.** With `COCCNc1nc(-c2ccc(C(=O)N(C)C)cc2)nc2ccccc12` as the molecule, how does the Potency read?
**A.** inconclusive [inhibitor, single point]

**Q.** For `CCC(C)C(=O)Nc1cc(C(=O)OC)ccc1C(=O)OC` (configuration not stated), which Potency is on record?
**A.** inconclusive [inhibitor, single point]

**Q.** How did the Potency turn out when `O=C(c1ccccc1F)N1CCN(c2ncccn2)CC1` was run?
**A.** inconclusive [inhibitor, partial curve]

**Q.** How did the Potency turn out when `Cc1ccc(OCC(=O)NCCC2=CCCCC2)cc1` was run?
**A.** inconclusive [inhibitor, single point]

**Q.** How did the Potency turn out when `Cc1c(C(=O)N2CCCCC2C)sc2ncnc(N3CCc4ccccc4C3)c12` (configuration not stated) was run?
**A.** active: 7.94 µM

**Q.** Which Potency does the source give for `COCCn1cnnc1SCC(=O)Nc1ccccc1C(=O)Nc1ccc2c(c1)OCO2` here?
**A.** inconclusive [inhibitor, partial curve]

**Q.** Which Potency does the source give for `O=C(Nn1c(C2CCCCC2)nc2ccccc2c1=O)c1ccc([N+](=O)[O-])cc1Cl` here?
**A.** inconclusive [inhibitor, single point]

**Q.** `COCCn1c(-c2ccccc2F)n[nH]c1=S` was tested. Which Potency did it give?
**A.** inconclusive [inhibitor, single point]

**Q.** `COc1ccc(/C=N/NC(=O)c2cc(-c3cccn3C)n[nH]2)cc1OC` was tested. Which Potency did it give?
**A.** inconclusive [inhibitor, single point]

**Q.** `Cc1cccc(-n2c(C)cc(C(=S)N3CCOCC3)c2C)c1C` was tested. Which Potency did it give?
**A.** inconclusive [inhibitor, single point]

**Q.** With `Cc1nn2c(c1-c1ccccc1)N=C(c1ccco1)CC2c1ccccc1` (configuration not stated) as the molecule, how does the Potency read?
**A.** active: 22.4 µM

**Q.** With `CCN(C(=S)Nc1cccnc1)c1cccc2ccccc12` as the molecule, how does the Potency read?
**A.** inconclusive [inhibitor, partial curve]

**Q.** For `Cn1c(=O)oc2cc(S(=O)(=O)NCCc3ccccc3)ccc21`, which Potency is on record?
**A.** inconclusive [inhibitor, single point]

**Q.** How did the Potency turn out when `Fc1ccc(NC(=S)N2CCn3cccc3C2c2cccnc2)cc1` (configuration not stated) was run?
**A.** inconclusive [inhibitor, single point]

**Q.** `CCCCN1C(=O)C(O)=C(C(C)=O)C1c1ccccc1` (configuration not stated) was tested. Which “activity, negative = inhibition” value did it give?
**A.** inactive: -6.95%

**Q.** How did the Potency turn out when `N#C/C(=C\c1cn(-c2ccccc2)nc1-c1cc2ccccc2o1)c1nc2ccccc2[nH]1` was run?
**A.** inconclusive [inhibitor, single point]

**Q.** With `N#Cc1c(SCc2cccc(Cl)c2)sc(C(=O)c2ccccc2)c1N` as the molecule, how does the Potency read?
**A.** inconclusive [inhibitor, partial curve]

**Q.** How did the Potency turn out when `CCOC(=O)C1=C(C)N=C2SC(C(=O)OC)=CC(=O)N2C1c1cccc(OC)c1` (configuration not stated) was run?
**A.** inconclusive [inhibitor, partial curve]

**Q.** With `COCCn1c(SCC(=O)Nc2ncc(C)s2)nc2sc3c(c2c1=O)CCC3` as the molecule, how does the “activity, negative = inhibition” value read?
**A.** inactive: -12.3%

**Q.** With `Cc1ccnc(N2CCC(C(=O)NCc3ccccc3F)CC2)n1` as the molecule, how does the Potency read?
**A.** inconclusive [inhibitor, single point]

**Q.** How did the Potency turn out when `COc1cccc(/C=C/C(=O)OCC(=O)NCc2ccco2)c1` was run?
**A.** inconclusive [inhibitor, single point]

**Q.** For `CN(C)c1ccc(/C=C/c2ccc3ccccc3[n+]2C)cc1`, which “activity, negative = inhibition” value is on record?
**A.** inactive: -14.5%

**Q.** With `COc1ccc(S(=O)(=O)N2CCN(CCC(=O)Nc3ccccc3F)CC2)cc1` as the molecule, how does the Potency read?
**A.** active: 1.12 µM

**Q.** Which Potency does the source give for `O=C(Nc1ccc2nc(-c3ccc4nc[nH]c4c3)[nH]c2c1)c1cccs1` here?
**A.** inconclusive [inhibitor, single point]

**Q.** `O=C(NCc1ccco1)c1ccc(=O)oc1` was tested. Which “activity, negative = inhibition” value did it give?
**A.** inactive: 0.098%

**Q.** With `Cc1cccc(C(=O)N=c2c(C#N)cc3c(=O)n4cccc(C)c4nc3n2Cc2ccco2)c1` as the molecule, how does the Potency read?
**A.** inconclusive [inhibitor, partial curve]

**Q.** With `COc1cc([N+](=O)[O-])ccc1NC(=O)C[n+]1cccc(C)c1` as the molecule, how does the Potency read?
**A.** inconclusive [inhibitor, single point]

**Q.** With `C=CCc1ccc(OCCCCNC(C)CC)c(OC)c1` (configuration not stated) as the molecule, how does the Potency read?
**A.** inconclusive [inhibitor, partial curve]

**Q.** How did the “activity, negative = inhibition” value turn out when `COc1ccccc1N(CC(=O)N/N=C/c1ccccc1C(=O)O)S(C)(=O)=O` was run?
**A.** inactive: 18.5%

**Q.** How did the Potency turn out when `C=CCc1ccccc1OCCCCN1CCCC1` was run?
**A.** inconclusive [inhibitor, partial curve]

**Q.** `Oc1cccc2cc3cccc(O)c3c(O)c12` was tested. Which Potency did it give?
**A.** inconclusive [inhibitor, single point]

**Q.** How did the Potency turn out when `Cc1ccccc1C(=O)N1CCC(C(=O)Nc2ccc3c(c2)OCCO3)CC1` was run?
**A.** active: 28.2 µM

**Q.** With `COc1cc(O)c(C(=O)/C=C/c2ccc(OC)c(O)c2)c(OC)c1` as the molecule, how does the Potency read?
**A.** active: 14.1 µM

**Q.** `Cc1cccc(C)c1NC(=O)C(NC(=O)CN1C(=O)c2ccccc2C1=O)c1ccccc1` (configuration not stated) was tested. Which “activity, negative = inhibition” value did it give?
**A.** inactive: 12.9%

**Q.** Which Potency does the source give for `CCN(CC)C(=O)C1=C(C)NC(=S)NC1c1ccc(C)s1` (configuration not stated) here?
**A.** active: 8.91 µM

**Q.** For `N#Cc1ccc(C(=O)Nc2ccc(N3CCN(C(=O)c4ccco4)CC3)cc2)c(F)c1`, which “activity, negative = inhibition” value is on record?
**A.** inactive: -13.1%

**Q.** `COC(=O)c1ccc(-c2ccc(CNCC(O)c3ccccc3)o2)cc1` (configuration not stated) was tested. Which Potency did it give?
**A.** inconclusive [inhibitor, partial curve]

**Q.** `Cc1ccc(C(=O)C2=C(O)C(=O)N(c3ncccn3)C2c2cccc(Cl)c2)o1` (configuration not stated) was tested. Which Potency did it give?
**A.** active: 12.6 µM

**Q.** With `Cc1ccc(S(=O)(=O)Nc2ccc(O)c(C(=O)O)c2)c(C)c1` as the molecule, how does the Potency read?
**A.** inconclusive [inhibitor, partial curve]

**Q.** How did the Potency turn out when `COc1ccc(NC(=O)CC2C(=O)N(c3ccc(Cl)cc3)C(=S)N2CCc2ccccn2)cc1` (configuration not stated) was run?
**A.** active: 15.8 µM

**Q.** Which Potency does the source give for `Cc1cccn2cc(-c3ccc(F)cc3)nc12` here?
**A.** inconclusive [inhibitor, single point]

**Q.** For `CC(C)=CCCC1=CCC(/C(C)=N/NC(N)=O)CC1` (configuration not stated), which Potency is on record?
**A.** inconclusive [inhibitor, partial curve]

**Q.** With `COc1cccc2c1OC1(C)CC2/C(=C(\C)O)C(=O)N1` (configuration not stated) as the molecule, how does the “activity, negative = inhibition” value read?
**A.** inactive: 3.73%

**Q.** How did the Potency turn out when `COc1ccc2[nH]c(C)c(CCNc3ccc(C(F)(F)F)cc3[N+](=O)[O-])c2c1` was run?
**A.** inconclusive [inhibitor, single point]

**Q.** `COc1ccc(N=C2SCC(=O)N2c2ccc(OC)cc2)cc1` was tested. Which “activity, negative = inhibition” value did it give?
**A.** inactive: -0.816%

**Q.** `O=C(COC(=O)c1cc(-c2cccc3ccccc23)nc2ccccc12)NC1CCS(=O)(=O)C1` (configuration not stated) was tested. Which Potency did it give?
**A.** inconclusive [inhibitor, partial curve]

**Q.** `O=[N+]([O-])c1cc(S(=O)(=O)Nc2cccc(C(F)(F)F)c2)ccc1-n1nnc2ccccc21` was tested. Which Potency did it give?
**A.** inconclusive [inhibitor, single point]

**Q.** How did the Potency turn out when `COCCN(CCOC)c1nc(C)nc2c1nc(-c1ccccc1)n2CCN1CCCC1` was run?
**A.** inconclusive [inhibitor, partial curve]

**Q.** For `CCOc1ccc(Nc2ccc(N3C(=O)CCC3=O)cc2[N+](=O)[O-])cc1`, which “activity, negative = inhibition” value is on record?
**A.** inactive: 3.96%

**Q.** For `CCN(CC)C(=O)C1CCCN(c2ccc([N+](=O)[O-])cc2/C=N/NC(=O)c2cccc(O)c2)C1` (configuration not stated), which Potency is on record?
**A.** active: 28.2 µM

**Q.** `CCC1CCCCN1CCCNC(=O)c1cc2c(=O)[nH]c3ccccc3c2n1C` (configuration not stated) was tested. Which Potency did it give?
**A.** inconclusive [inhibitor, single point]

**Q.** For `Cc1cc(N2CCCCC2)nc2ccc(NC(=O)CCC(=O)NCCC(C)C)cc12`, which Potency is on record?
**A.** inconclusive [inhibitor, partial curve]

**Q.** `O=C(/C=C/c1cn(-c2ccccc2)nc1-c1cccc(Cl)c1)N1CCN(c2ccccn2)CC1` was tested. Which “activity, negative = inhibition” value did it give?
**A.** inactive: 1.55%

**Q.** With `O=C(NC(=S)Nc1ccc2c(c1)C(=O)c1ccccc1C2=O)c1ccc(F)cc1` as the molecule, how does the Potency read?
**A.** active: 11.2 µM

**Q.** `CCOC(=O)N1CCN(C(=O)CN(Cc2ccc(Cl)cc2)S(C)(=O)=O)CC1` was tested. Which Potency did it give?
**A.** inconclusive [inhibitor, single point]

**Q.** For `CCCCNC(=O)CSc1nc2ccc(N3CCOCC3)cc2c(=O)n1Cc1ccc(OC)cc1`, which Potency is on record?
**A.** inconclusive [inhibitor, partial curve]

**Q.** Which “activity, negative = inhibition” value does the source give for `O=C(N=Nc1c(O)n(Cc2ccccc2)c2ccccc12)c1cc2ccccc2cc1O` here?
**A.** inactive: 18%

**Q.** How did the Potency turn out when `Cc1ccc(C2=NN=C(NC(=O)CSc3nc(C)cc(C)n3)SC2)cc1` was run?
**A.** inconclusive [inhibitor, single point]

**Q.** Which Potency does the source give for `CCN(CC)S(=O)(=O)c1ccc2c(c1)nc(SCn1nnc3ccccc3c1=O)n2CC` here?
**A.** active: 10 µM

**Q.** Which Potency does the source give for `COc1ccc(Oc2ncc3nc(-c4cccc(C#N)c4)c(=O)n(CCC#N)c3n2)cc1` here?
**A.** inconclusive [inhibitor, partial curve]

**Q.** Which “activity, negative = inhibition” value does the source give for `O=C(CCNC(=O)Cn1ccc2ccccc2c1=O)NCC1CCCC1c1ccccc1` (configuration not stated) here?
**A.** inactive: 12%
